# Measurements published in PMC6919601, “Identification of Plasmodium dipeptidyl aminopeptidase allosteric inhibitors by high throughput screening” (PLoS ONE, 2019).
# Among all 110,000 compounds or so, about 230 (0.21%) showed an effect of 50% or more. The list shows a part of the results.
# Target: DPAP1 (Plasmodium falciparum, UniProt Q8IIJ9)
# Assay: primary screen, percent inhibition; read by cleavage of a fluorogenic dipeptide substrate; higher = more effect of the substance
# Parameters: species or system P. falciparum D10 trophozoite lysates; single well
# 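Further: 30 min substrate incubation versus DMSO and 10 µM JCP410 controls.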
# DPAP1, sequence (Q8IIJ9 whole entry, looked up): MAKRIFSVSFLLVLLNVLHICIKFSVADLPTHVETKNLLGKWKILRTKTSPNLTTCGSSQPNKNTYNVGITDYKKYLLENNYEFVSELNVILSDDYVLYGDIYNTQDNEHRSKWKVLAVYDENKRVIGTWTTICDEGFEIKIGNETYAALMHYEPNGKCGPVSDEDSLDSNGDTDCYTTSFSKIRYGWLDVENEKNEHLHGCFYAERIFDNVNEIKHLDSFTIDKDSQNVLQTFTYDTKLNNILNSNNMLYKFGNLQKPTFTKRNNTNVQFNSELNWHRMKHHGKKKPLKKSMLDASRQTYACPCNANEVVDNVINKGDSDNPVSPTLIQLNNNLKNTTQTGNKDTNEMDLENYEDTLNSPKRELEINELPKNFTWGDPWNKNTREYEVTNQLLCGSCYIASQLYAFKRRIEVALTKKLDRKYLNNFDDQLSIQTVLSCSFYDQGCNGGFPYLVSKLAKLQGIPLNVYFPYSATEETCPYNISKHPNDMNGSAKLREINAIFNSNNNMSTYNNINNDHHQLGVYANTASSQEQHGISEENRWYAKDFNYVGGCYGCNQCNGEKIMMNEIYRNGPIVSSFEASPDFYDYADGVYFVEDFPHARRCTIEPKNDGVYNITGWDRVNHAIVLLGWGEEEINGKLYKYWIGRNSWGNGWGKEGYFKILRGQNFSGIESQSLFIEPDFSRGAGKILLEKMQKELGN
row,SMILES,% Inhibition @ 10 uM [%]
1,C=CC/N=C(\CCCN1C(=O)c2ccccc2C1=O)C1=C(O)CC(C)(C)CC1=O,2.7
2,COc1ccc(Cl)cc1NC(=O)c1ccc(Cn2nc(C)c(Br)c2C)o1,2.44
3,N#CCNC(=O)[C@H](Cc1cn(C=O)c2ccccc12)NC(=O)c1ccc(F)cc1,1.35
4,CCN1C(=O)c2ccc(C(=O)NCc3ccc4c(c3)OCO4)cc2C1=O,-1.2
5,CCc1nnc(/N=C/C2=C(O)OC(C)(C)OC2=O)s1,-5.08
6,COc1cc(/C=C2\SC(=N)N(c3nnc(C)s3)C2=O)ccc1OCc1ccccc1F,-7.56
7,CCN(Cc1ccccc1)C(=O)c1ccc(Br)cc1,3.48
8,CCc1ccc(OCC(=O)Nc2ccccc2C(N)=O)c(Br)c1,-1.92
9,CCOc1ccc(S(=O)(=O)N2CCCCC2C)c2ccccc12 (stereo not shown),0.392
10,Cc1cc(/C=c2\sc3nc4ccccc4n3c2=O)c(C)n1-c1ccncc1,2.17
11,C=Cc1ccc(Cn2c(C(=O)O)c(CNCc3ccc(C)o3)c3ccc(C)cc32)cc1,-3.88
12,CCN1C(=O)NC(=O)/C(=C\c2cn(CC(=O)O)c3ccccc23)C1=O,2.09
13,OCCN(Cc1ccccc1)Cc1ccc(F)cc1F,-6
14,CCCCN(C)C(=O)c1cc2c(s1)-c1ccccc1S(=O)(=O)C2,2.64
15,CC(C)C(=O)NCCCc1nc2ccccc2n1CCc1ccccc1,-2.28
16,CCCN1C/C(=C/c2ccccc2)C(=O)/C(=C/c2ccccc2)C1,22.6
17,CCOc1ccc(CSc2nc(C)cc(COC)c2C#N)cc1OCC,-4.91
18,CC(=O)N1CCCC1(C(=O)O)c1ccccc1 (stereo not shown),-2.03
19,Cc1cc(C)n(CCc2nc3c4ccccc4nc(N4CCC(Cc5ccccc5)CC4)n3n2)n1,0.981
20,Cc1cc(C)nc(/N=C(/NC(=O)Cc2ccccc2)N2CCC(C(N)=O)CC2)n1,5.46
21,CCN(CC)S(=O)(=O)N(CC(=O)NCc1ccccc1Cl)Cc1ccc(F)cc1,1.62
22,COc1ccc(S(=O)(=O)NCc2nc(N)n(S(=O)(=O)c3ccc(OC)cc3)n2)cc1,2.84
23,CSc1ccc(-c2cccs2)nn1,-0.822
24,CCCOc1nc2c(c(=O)n(C)c(=O)n2C)n1CCc1ccccc1,3.59
25,O=C(O)c1cc(-c2ccc(Cl)s2)nc2ccccc12,-2.45

row,SMILES,% Inhibition @ 10 uM [%]
1,COCCCNC(=O)/C(C#N)=C/c1c(Oc2cc(C)cc(C)c2)nc2ccccn2c1=O,-1.43
2,Clc1ccc(-c2noc3ncnc(NC4CCN(Cc5ccccc5)CC4)c23)cc1,-2.19
3,OCCN(CCO)c1ncnc2c1cnn2-c1ccccc1,0.258
4,Cc1cccc(N2C(=O)CC(N3CCN(c4ccccc4Cl)CC3)C2=O)c1 (stereo not shown),3.69
5,COc1ccc(S(=O)(=O)c2c(O)nc3cc(C(=O)NCc4ccc(C)cc4)ccc3c2O)cc1,-0.264
6,Cc1ccc(/C(O)=C/C=N/c2ccc(S(=O)(=O)Nc3cnc4ccccc4n3)cc2)cc1,0.658
7,O=C(CSc1nc(-c2ccc(Cl)cc2)n[nH]1)Nc1cccc(Cl)c1,-6.7
8,CC(CN1CCCC(C(N)=O)C1)c1ccccc1 (stereo not shown),1.26
9,O=C(Cc1ccccc1)n1nc(-c2ccccc2)nc1NCc1ccc(F)cc1,3.93
10,N#Cc1ccc(NC(=O)c2cc3nc(C(F)F)cc(C(F)F)n3n2)cc1,-1.89
11,CC(=O)NC12CC3CC(CC(O)(C3)C1)C2,5.43
12,CC(C)CC(NC(=O)c1cccc(N)c1)C(=O)NCC#N (stereo not shown),-0.778
13,Cc1ccc(C2(c3ccc(C)cc3)CC2C(=O)NCc2ccccc2)cc1 (stereo not shown),3.25
14,Cn1c(=O)c2sccc2n2c(CCCC(=O)NCC3CCN(C4CCCC4)C3)nnc12 (stereo not shown),0.297
15,O=C(NCc1ccccn1)c1ccc2c(c1)OCO2,-12.1
16,CCCCC(=O)Nc1cc(OC)c(Cl)cc1OC,-4.67
17,CC(Cc1cccc(C(F)(F)F)c1)NCc1ccco1 (stereo not shown),-1.75
18,COCCCNC(=O)CN1N=C(c2ccccc2)CCC1=O,-1.21
19,COc1ccc2c(Cl)c(C(=O)N3CCOCC3)sc2c1Cl,11.6
20,O=C(NCCCn1ccnc1)c1cc(-c2ccc(Cl)s2)nc2ccccc12,5.54
21,Cc1ccc(CCNS(=O)(=O)c2ccc3[nH]c(-c4ccccc4)nc3c2)cc1,5.19
22,CCc1ccc2ncc(S(=O)(=O)c3ccc(Cl)cc3)c(N3CCOCC3)c2c1,-5.37
23,CCC(C)(O)c1nnn(-c2nonc2N)c1C(C)(O)CC (stereo not shown),7.5
24,CCOc1cc(/C=C2/SC(=O)NC2=O)cc(Br)c1O,-8.2
25,CCOc1ccc(CN2CCSCC2)cc1,4.66

row,SMILES,% Inhibition @ 10 uM [%]
1,COc1cc(/C=C2\CCc3ccccc3C2=O)cc(OC)c1OC,5.5
2,c1ccc(N2CCN(Cc3ccoc3)CC2)cc1,-2.81
3,COCCCNC(=O)C1CCN(C(=O)c2sccc2-n2cccc2)CC1,-7.02
4,Cc1nc2ccc3c(ccc4nc(C)sc43)c2s1,-8.12
5,COc1ccc(NC(=O)/C(=C/c2ccco2)NC(=O)c2ccco2)cc1,1.01
6,N#CC1=C(N)N(c2ccccc2)C2=C(C(=O)CCC2)C1c1ccc(F)cc1 (stereo not shown),-1.08
7,COc1ccc(C(=O)Nc2nc(-c3nnn(-c4cccc(C(F)(F)F)c4)c3C)ns2)cc1,-1.2
8,NS(=O)(=O)c1ccc(NC(=O)COc2ccccc2)cc1,-1.46
9,Cc1cc(Cl)ccc1OCC(=O)Nc1nc2nc(-c3ccccc3)cc(O)n2n1,3.66
10,CN1CCN(c2ccc(NC(=O)c3ccc(Br)o3)cc2)CC1,-8.06
11,O=C(NC1CCCCC1)c1ccccc1NC(=O)C1CC1,3.48
12,CCc1ccc(Sc2cc(C(=O)NCCOC)c3ccccc3n2)cc1,-0.0542
13,COc1cccc(Cn2c(C)c(CNCCc3ccco3)c(C(=O)O)c2C)c1,-7.36
14,Cc1ccc(C)c(S(=O)(=O)NCc2ccc(C(=O)N3CCOCC3)cc2)c1,-1.04
15,COc1ccc(C2C3=C(O)CCCC3=NC(C)=C2C(=O)Nc2ccc(F)cc2F)c(OC)c1 (stereo not shown),-1.07
16,CCCNC(=O)c1ccc(CS(=O)c2ccc(Br)cc2)o1 (stereo not shown),-6.05
17,CCC[C@@H](NC(=O)[C@H](CC1CCCCC1)NS(C)(=O)=O)C(=O)c1nc2ccccc2o1,-3.49
18,O=C(c1ccc2c(c1)nc(S)n1c3ccccc3nc21)N1CCN(C(=O)c2ccco2)CC1,2.56
19,CCN(CC)S(=O)(=O)c1ccc(N/C=C2/C(=O)NC(=O)N(c3ccc(C)cc3)C2=O)cc1,-1.07
20,COc1ccc(C(=O)N(Cc2ccccc2)c2ccccn2)cc1Cl,-5.18
21,COc1cccc(CNCc2cccnc2)c1OCc1ccc(F)cc1,-2.22
22,CC1=CCN(C(C)(C)C)CC1=O,5.2
23,CCC(=O)c1ccc(C2CCCCC2)cc1,1.03
24,CC1(C)CC(O)=C/C(=N/CCN2CCOCC2)C1,0.385
25,CCOC(=O)C1=C(C)NC(=O)/C1=C\c1cccs1,-0.267

row,SMILES,% Inhibition @ 10 uM [%]
1,CC(C)(C)OC(=O)NCC(=O)NCCc1nc2ccccc2[nH]1,-0.0735
2,FC(F)(F)C(Oc1nc(N2CCOCC2)nc(-n2nnc3ccccc32)n1)C(F)(F)F,-4.24
3,Cc1cc(C)c(NC(=O)C2CCCN2C2CCCCC2)c(C)c1 (stereo not shown),2.94
4,O=c1c(CN2CCN(c3ccc(F)cc3)CC2)coc2ccccc12,-8.28
5,OC1CCCN(Cc2ccccc2)C1 (stereo not shown),-3.56
6,COC(=O)c1cc(=O)n(C2CCCCC2)/c(=N/C2CCCCC2)s1,-3.45
7,CC(C)C[C@H](NC(=O)N1CCN(c2ccccc2O)CC1)C(=O)NCC#N,-3.48
8,CC(=O)N1CCN(CC(O)COc2ccc(C)cc2)CC1 (stereo not shown),-1.06
9,O=C(O)/C=C/c1coc2ccc(Cl)cc2c1=O,-3.96
10,CCOc1ccc(C2=CC(c3cccc(OC)c3OC)n3nnnc3N2)cc1Cl (stereo not shown),-0.125
11,COc1cccc(N2CCN(CC(=O)Nc3nc4c(s3)CC(C)CC4)CC2)c1 (stereo not shown),1.84
12,CC(=O)Nc1ccc2nc(C)ccc2c1,0.00784
13,Cc1ccc(S(=O)(=O)Nc2cccc3cccnc23)s1,-2.74
14,Cc1ccc(-n2nc(C)c3c(-c4ccccc4)ccnc32)cc1,2.29
15,O=C(CCc1nc(CN2CCN(C(=O)c3ccc(Br)cc3)CC2)no1)N1CCOCC1,-2.56
16,Cc1cc(C)cc(NC(=O)c2cccnc2Cl)c1,0.826
17,O=C(Nc1cccnc1)C1CCCN(S(=O)(=O)c2cccc3nsnc23)C1 (stereo not shown),-6.62
18,COc1ccc2c(c1)C(N1CCN(CCO)CC1)Cc1cc(Cl)ccc1S2 (stereo not shown),-9.24
19,O=C(NCCCN1CCOCC1)c1cc2nc(-c3cccs3)cc(C(F)(F)Cl)n2n1,1.92
20,c1ccc(-n2cccc2CNC2CCCCC2)cc1,-6.18
21,CCN1C(=O)N/C(=C/c2cc(Cl)ccc2OC)C1=O,-9.24
22,CC(NC(=O)CCCn1ncn2c(cc3occc32)c1=O)c1ccc2c(c1)OCCO2 (stereo not shown),-5.63
23,Cc1cc2c(c(SCC(=O)c3ccccc3)n1)C(=O)O/C2=C\c1c(C)[nH]c(C#N)c1C,14.9
24,COc1ccc(CCNC(=O)CSC2=C(C#N)C(c3ccccc3F)CC(=O)N2)cc1 (stereo not shown),2.75
25,Cc1c(C)n(C(=O)CN2CCN(Cc3ccc4c(c3)OCO4)CC2)c2ccccc12,-4.51
